Article PMC12136788
Some of the results follow.

T1: UNK ZnF1-6 (called full-length) (human, UniProt Q9C0B0 30-357)
T1 sequence: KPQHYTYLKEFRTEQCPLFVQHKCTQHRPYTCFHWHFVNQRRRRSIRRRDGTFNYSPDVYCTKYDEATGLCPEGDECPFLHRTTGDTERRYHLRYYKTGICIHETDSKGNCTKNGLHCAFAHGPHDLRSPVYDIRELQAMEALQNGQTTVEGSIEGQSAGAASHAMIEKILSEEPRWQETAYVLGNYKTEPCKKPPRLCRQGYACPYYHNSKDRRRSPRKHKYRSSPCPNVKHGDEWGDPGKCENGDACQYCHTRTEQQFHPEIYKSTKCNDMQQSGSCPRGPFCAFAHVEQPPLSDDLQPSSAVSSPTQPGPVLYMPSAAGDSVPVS

B1: chr7:73597181:73597713:-|CDS|ENSG00000009950|control|control|control (ssRNA)
RNA: GGGAGUUCUACAGUCCGACGAUCGCCCAGAGGCAAGCCCCCCGCCCCAUCCCCUAGGGGACAGAAAGCCAGCCCCCCUACCUUAGCCCCUGCCACUGCCAGUCCCCCCACCACUGCGGGGAGCAACAACCCCUGCCUCACACACAACAGAGGAUUGAGCAUCA
B2: chr7:93099512:93101327:-|three_prime_utr|ENSG00000205413|control|control|control (ssRNA)
RNA: GGGAGUUCUACAGUCCGACGAUCUCUCAGUACCCAUUUAAUUUUUUUGGACUCAAGAUCUAUGCUUUAAACCGGCAAGGUUAUAGAUACAGCCUCUAGCUCUUCAGAUCUGUACAUGCAGUAUUUAAUUUCCUCUUAAACAUGCAACAGAGGAUUGAGCAUCA
B3: chr3:167305642:167305950:-|CDS|ENSG00000169064|control|control|control (ssRNA)
RNA: GGGAGUUCUACAGUCCGACGAUCAAAGUCUGAUGAUUCCUGUGUAUCACUUGAAAGCAAGGACACUUUGCUAGGUAGAGAUUUAGAAAAAGCUCCCAUUGAGGAGAAAUUAUCUCAAGACAUCAAAGAAUCCUUGGAAUUGAGCAACAGAGGAUUGAGCAUCA
B4: chr4:75800632:75800752:+|CDS|ENSG00000138768|unk|total|mutant (ssRNA)
RNA: GGGAGUUCUACAGUCCGACGAUCAAACAACUGAUUGAGAAGAGGAUUGGCAAAGAGAAUUUCACCGAGAAACCCGGAUUUAUCCGCAAACAUGAGUUGUAUUCCAGAGCAUCUCAGAAACCCCAGCCAAACUUUCCCAGUCCACAACAGAGGAUUGAGCAUCA
B5: chr10:89738052:89738153:+|CDS|ENSG00000138182|unk|FALSE|bound_elsewhere (ssRNA)
RNA: GGGAGUUCUACAGUCCGACGAUCCUGGAACAACAAAUUGAAAAAUUGCAGGCAGAAGUAAAAGGCUAUAAGGAUGAAAACAAUAGACUAAAGGAGAAGGAGCAUAAAAACCAAGAUGACCUACUAAAAGAAAAAGAAACUCUUCAACAGAGGAUUGAGCAUCA
B6: chr6:13358100:13358202:-|3pUTR|ENSG00000145990|unk|total|mutant (ssRNA)
RNA: GGGAGUUCUACAGUCCGACGAUCAGUAAACAGAGUCUAUAUUUUCUAUAUAAUGCCGACCGUCAAACACCGCUUAUAAAUUACCGGAGGUUUUGGUUUUCUUUUUUAUUAUUAAAGGAAAAAAAGAAGAAAAAAAAAGACAAUCAACAGAGGAUUGAGCAUCA
B7: ENSG00000198856:stop:overlap|stop_codon|ENSG00000198856|stop_codon|NA|stop_codon (ssRNA)
RNA: GGGAGUUCUACAGUCCGACGAUCUGAGUUUUUUCAUGGCUAGAGUAUUCAUGAGAAUGAAACUGCCGGGCUAUCUGAUGGGUUAGAGUGCCUUUGAGAAGAAAUCAGUGGAUACUGGAUUUGCUCCUGUCAAUGAAGUUUUAACAACAGAGGAUUGAGCAUCA
B8: chr3:27418507:27418620:-|CDS|ENSG00000033867|unk|total|mutant (ssRNA)
RNA: GGGAGUUCUACAGUCCGACGAUCUGAUGCCGCUUAUAAAGCAAAAGACAGAAAUGACCUCUUAUCUGGAAUUGAUGAAUUUUCCGAUCAAGUAACUGUCCUACCUCCAGGAGAGUGGGAUCCUUCUAUACGCACCGAACCACCCAACAGAGGAUUGAGCAUCA
B9: chr10:71816642:71816777:-|3pUTR|ENSG00000197746|msi1_unk|FALSE|overlapping (ssRNA)
RNA: GGGAGUUCUACAGUCCGACGAUCUUGUUUGGGGUUCUGUGGGUUUGGGUGGGAAGAGGGCCAUCUGCCUGAAUGUAACCUGCUAGCUCUCCGAAGGCCCUGCGGGCCUGGCUUGUGUGAGCGUGUGGACAGUGGUGGCCGCGCCAACAGAGGAUUGAGCAUCA
B10: chrY:12776687:12776788:+|CDS|ENSG00000114374|msi1|FALSE|unique (ssRNA)
RNA: GGGAGUUCUACAGUCCGACGAUCGUUUUUGAUGGUGACAAAAACAGCAUUAAUUGUGCAAGACAAGAAGCCAUUCGAAUGGUUAGAGUAUUAACUGUUAUAAAAGAGUACAUUAAUGAAUGUGACAGUGAUUAUCACAAGGAACAACAGAGGAUUGAGCAUCA
B11: chr1:154944474:154944574:-|3pUTR|ENSG00000163346|msi1_unk|FALSE|overlapping (ssRNA)
RNA: GGGAGUUCUACAGUCCGACGAUCUCGAGGCCCAGCACGAGGACUUACCCUGGGGUUUUGUUAGGUUUGGAAGCAGCUGUCCCUAGGGGGUGAAGUCCCCCCCCUUUUUUUUUUUACCCCUGCUUCUCCCACGGCUUCACCUCCCAACAGAGGAUUGAGCAUCA
B12: chr4:150908776:150908877:-|CDS|ENSG00000198589|msi1|total|mutant (ssRNA)
RNA: GGGAGUUCUACAGUCCGACGAUCGUUGAUUUGUACUCCGAUUCUCUUUGUGGCAUACUAUUUAACUGUUUUUAAUUAAUUCUCCGGGUACAUUUAAAUUCAAAGCAGAAAGCGACCUUUUCCUUGCUGAGCAUCACAAACUUUCAACAGAGGAUUGAGCAUCA
B13: chr19:15272971:15273072:-|CDS|ENSG00000141867|msi1|FALSE|unique (ssRNA)
RNA: GGGAGUUCUACAGUCCGACGAUCGUCUGCGGAGAGCGGCCCUGGGACGAGAUUGAGAAAUCUGCCAGUAAUGGGGGAUGGACUAGAAACUUCCCAAAUGUCUACAACACAGGCCCAGGCCCAACCCCAGCCAGCCAACGCAGCCAACAGAGGAUUGAGCAUCA
B14: chr9:132328913:132329014:-|CDS|ENSG00000107290|msi1|FALSE|bound_elsewhere (ssRNA)
RNA: GGGAGUUCUACAGUCCGACGAUCAGAACAAAAAUCUCAAAACAAUGUAUUGCCAAAAGAGAAACAAUUAAAGAAUGAAGAAUUAGUUAUUUUCUCUUUCCAUGAAAACAAUUGUAAAAUACAGGAAUUUCAUGUUGAUGGUAACAACAGAGGAUUGAGCAUCA

The binders below were run against T1, UNK ZnF1-6 (called full-length) (assay: nsRBNS (natural sequence RNA bind-n-seq); RBNS binding buffer (assumed for nsRBNS): 25 mM Tris pH 7.5, 150 mM KCl, 3 mM MgCl2, 0.01% Triton X-100, 500 ug/ml BSA, 20 U/ml SUPERase-In, 4 C; UNK is unkempt and MSI1 is Musashi-1; names of the RNAs are library labels; protein concentration not given here; high values mean tight binding).
Work on B1 yielded a binding signal of 1.22 enrichment R.
With B2 the binding signal was 0.809 enrichment R.
B3 was tested, and the binding signal was 0.234 enrichment R.
B4 gave a binding signal of 0.693 enrichment R.
B5 showed a binding signal of 0.472 enrichment R.
Binder B6 has a binding signal of 1.07 enrichment R.
For B7, the binding signal was 1.02 enrichment R.
B8 was tested, and the binding signal was 0.451 enrichment R.
Binder B9 has a binding signal of 0.99 enrichment R.
B10 showed a binding signal of 0.565 enrichment R.
In the case of B11, the binding signal is reported as 1.37 enrichment R.
For B12, the binding signal was 1.26 enrichment R.
With B13 the binding signal was 0.88 enrichment R.
In the case of B14, the binding signal is reported as 0.598 enrichment R.
